# Laboratory results from PubChem BioAssay AID1460 (National Center for Advancing Translational Sciences (NCATS), 2008).
# Hit rate of the full screen: of about 270,000 compounds, about 5,800 (2.1%) were called active. This list was built around the results that the source calls inconclusive (neither active nor inactive); the mix of calls is not that of the screen. Calls come from the whole dose curve; as a rule, active = well fitted inhibition curve with a large enough effect; inconclusive = small, poorly fitted or top-dose-only effect; inactive = flat fitted curve, though single readings scatter. Potencies of inconclusive entries are doubtful fits and often do not repeat.
# Molecular target: Microtubule-associated protein tau (Homo sapiens) (UniProt P10636)
# Experiment: qHTS for Inhibitors of Tau Fibril Formation, Thioflavin T Binding; note: nearly all actives have a fitted effect of over 55% in size
# Conditions: recombinant tau K18 P301L, heparin-induced fibrillization, ThT fluorescence; series mostly up to 57.4 µM
# How it was run: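 Using a mix of unlabeled (15 uM) and Alexa 594-labeled (0.24 uM) tau K18 P301L, heparin-triggered fibrillization over 6 hr at 37 C was scored by ThT fluorescence.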
# Potency is the fitted concentration of half-maximal effect; tags give direction and shape of the fitted curve.
# UniProt P10636, sequence (P10636 whole entry, looked up): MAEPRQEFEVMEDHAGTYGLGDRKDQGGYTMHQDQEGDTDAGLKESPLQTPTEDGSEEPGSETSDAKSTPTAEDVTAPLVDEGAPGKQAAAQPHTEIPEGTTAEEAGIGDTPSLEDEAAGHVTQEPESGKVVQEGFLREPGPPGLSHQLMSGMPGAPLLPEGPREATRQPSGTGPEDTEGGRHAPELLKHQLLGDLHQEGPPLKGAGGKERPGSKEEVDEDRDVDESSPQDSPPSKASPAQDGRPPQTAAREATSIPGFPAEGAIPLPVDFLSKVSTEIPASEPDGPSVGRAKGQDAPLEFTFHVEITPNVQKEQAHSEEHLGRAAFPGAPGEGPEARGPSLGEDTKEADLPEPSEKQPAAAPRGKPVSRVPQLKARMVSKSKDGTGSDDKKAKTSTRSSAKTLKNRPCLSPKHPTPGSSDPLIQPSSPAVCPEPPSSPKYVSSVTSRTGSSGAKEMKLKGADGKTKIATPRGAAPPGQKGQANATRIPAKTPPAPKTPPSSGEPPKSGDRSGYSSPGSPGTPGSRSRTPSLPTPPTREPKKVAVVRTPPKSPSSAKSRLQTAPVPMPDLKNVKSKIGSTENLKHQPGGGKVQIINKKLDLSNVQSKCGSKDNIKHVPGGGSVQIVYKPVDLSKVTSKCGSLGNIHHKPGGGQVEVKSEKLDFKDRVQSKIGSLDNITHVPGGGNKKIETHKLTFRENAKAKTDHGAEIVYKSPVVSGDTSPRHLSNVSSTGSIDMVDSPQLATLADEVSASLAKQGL
row,SMILES,Potency
1,Cc1cccc(NCC(=O)N/N=C\c2c[nH]c3ccccc23)c1,"inconclusive: 3.98 µM [inhibitor, partial curve]"
2,Cc1c(/C=N/NC(=O)CNc2ccccc2)c2ccccn2c1C(=O)c1ccncc1,active: 14.1 µM
3,CCc1n[nH]c(=S)n1/N=C/c1ccc(NC(C)=O)cc1,inactive
4,O=C(Nc1nc2n(n1)C(c1ccc(F)cc1)CC(c1ccccc1)N2)c1ccco1 (stereo not given),inactive
5,Fc1c(F)c(F)c(N/N=C/c2c[nH]c3ccccc23)c(F)c1F,active: 12.6 µM
6,Cc1ccc(N/N=C(\C#N)C(N)=S)cc1C,"inconclusive: 3.98 µM [inhibitor, partial curve]"
7,COC(=O)c1cc(C(=O)c2ccc(Cl)cc2)n2c(=O)/c(=C\N(C)C)sc12,"inconclusive: 35.5 µM [inhibitor, single point]"
8,CCOc1ccc(N2C(=O)CC(Sc3n[nH]c(-c4ccccc4)n3)C2=O)cc1 (stereo not given),"inconclusive: 31.6 µM [inhibitor, single point]"
9,Cc1ccccc1CN(C)CCc1ccccn1,inactive
10,COc1ccc(S(=O)(=O)Cc2ccc(C(=O)N3CCN(c4cccc(C)c4)C(C)C3)o2)cc1 (stereo not given),"inconclusive: 28.2 µM [inhibitor, partial curve]"
11,COC(=O)C1=NN(N=O)C2(CC(=O)N(c3cc(C)cc(C)c3)C2=O)C1 (stereo not given),inactive
12,COc1ccccc1-c1ccc(SCc2ccc(C)cc2)nn1,"inconclusive: 8.91 µM [inhibitor, partial curve]"
13,COc1cc(/C=C(\C#N)C(=O)Nc2ccc(C)cc2)ccc1OCc1cc(=O)n2nc(C)sc2n1,"inconclusive: 2.24 µM [inhibitor, full curve]"
14,COc1ccc(N2CC(NC(=O)c3cc4ccccc4o3)CC2=O)cc1OC (stereo not given),inactive
15,O=C(COC(=O)c1c2c(nc3ccccc13)CCCC2)c1cccs1,"inconclusive: 11.2 µM [inhibitor, partial curve]"
16,COc1ccc(S(=O)(=O)N(Cc2ccccc2)Cc2nc3ccccc3c(=O)[nH]2)cc1,inactive
17,COC(=O)c1ccc(NC(=O)Nc2ccc(OC)cc2)cc1,"inconclusive: 6.31 µM [inhibitor, partial curve, poor fit]"
18,Cc1cccc(Cn2cc3c(=O)n(CC(=O)Nc4ccc(C)c(F)c4)nc-3c3cc(F)ccc32)c1,"inconclusive: 17.8 µM [inhibitor, partial curve]"
19,CCOc1cc(/C=C/C(=O)c2ccc(C)cc2)ccc1OCC(=O)N(C)C,"inconclusive: 8.91 µM [inhibitor, full curve, poor fit]"
20,CC[C@H]1C(c2ccc(F)cc2)=NN(c2ccccc2)[C@@H]1CO,"inconclusive: 63.1 µM [inhibitor, partial curve, poor fit]"
21,CC/C=C\C[C@H](O)/C=C/C=C\C/C=C\C/C=C\CCCC(=O)O,inactive
22,O=C(O)c1cc(Cl)c(Cl)cc1C(=O)Nc1cccc2ncccc12,"inconclusive: 3.55 µM [inhibitor, full curve]"
23,COc1cccc(C(=O)CSc2nc3cccnc3n2C)c1,"inconclusive: 7.94 µM [inhibitor, partial curve]"
24,COc1ccc(NS(=O)(=O)c2cc(OC)ccc2NC(=O)c2cc(C)oc2C)cc1,"inconclusive: 31.6 µM [inhibitor, partial curve]"

row,SMILES,Potency
1,O=C1N=c2ccccc2=C1c1[nH]c(=S)[nH]c1O,"inconclusive: 7.94 µM [inhibitor, full curve]"
2,CCN(CC(=O)Nc1sc2c(c1C#N)CCC(C)C2)Cc1nc2ccccc2c(=O)[nH]1 (stereo not given),"inconclusive: 14.1 µM [inhibitor, partial curve]"
3,CCC(C)NC(=O)C1CCCN1S(=O)(=O)c1ccc(Cl)cc1 (stereo not given),inactive
4,Cc1ccc(N2C(=O)C(c3c(C)[nH]n(-c4ccccc4)c3=O)(C(F)(F)F)C3=C2CC(C)(C)CC3=O)cc1 (stereo not given),"inconclusive: 17.8 µM [inhibitor, partial curve]"
5,CS(=O)(=O)c1ncc(Cl)c(C(=O)Nc2ccc(N3CCOCC3)cc2)n1,active: 3.16 µM
6,CCCS(=O)(=O)c1nc(S(=O)(=O)c2ccc(C)cc2)c(N2CCCC2)s1,inactive
7,CCCC(=O)Nc1nnc2n1CCS2,inactive
8,Cc1cncn1CCc1nc2c3ccccc3nc(SCC(=O)Nc3cccc(Cl)c3)n2n1,"inconclusive: 8.91 µM [inhibitor, partial curve]"
9,CC(=O)c1cc2c(cc1NC(=O)CN1CCCCCCC1)OCO2,"inconclusive: 17.8 µM [inhibitor, partial curve]"
10,CCOc1ccccc1NC(=O)c1cc2c(=O)oc3ccccc3c2s1,inactive
11,Cc1cccc(C)c1-n1ncc(C(=O)N2CCN(c3ccccc3)CC2)c1C1CCN(C(=O)OC(C)(C)C)CC1,"inconclusive: 10 µM [inhibitor, partial curve]"
12,CCOc1ccc(S(=O)(=O)Nc2ccc3c(c2)N(C(C)=O)CCC3)cc1,inactive
13,Cc1cccn2cc(CSc3nnc(Nc4ccc(C(C)C)cc4)s3)nc12,"inconclusive: 39.8 µM [inhibitor, single point]"
14,CC1CCN(CC(=O)NCc2ccccc2)CC1,inactive
15,CCCCCc1c2c(cc(O)c1C(=O)O)OC(=O)c1c(cc(OC)cc1C(=O)CCCC)O2,"inconclusive: 28.2 µM [inhibitor, single point]"
16,CCCOC(=O)Nc1sc2c(c1C(N)=O)CCCC2,"inconclusive: 35.5 µM [inhibitor, single point]"
17,Brc1ccc(-c2cn3nc4c(nc3n2)CCCC4)cc1,active: 17.8 µM
18,CC(C)c1cccc(C(C)C)c1NC1=NS(=O)(=O)c2ccccc21,inactive
19,COCCN1C(=O)c2[nH]nc(-c3cc(C)ccc3O)c2C1c1ccc(C(C)C)cc1 (stereo not given),"inconclusive: 39.8 µM [inhibitor, single point]"
20,CCc1ccc(OCC(=O)Nc2ccc3c(c2)COC3=O)cc1,"inconclusive: 2.51 µM [inhibitor, full curve, poor fit]"
21,O=C(NCc1ccc(F)cc1)c1ccccc1OCc1ccccc1,"inconclusive: 39.8 µM [inhibitor, single point]"
22,COC(=O)c1cnc(N2CCN(c3ccccc3F)CC2)c2ccccc12,"inconclusive: 11.2 µM [inhibitor, partial curve]"
23,COc1ccc(OC)c(NC(=O)c2c(NCc3cccs3)sc3c2CCCC3)c1,"inconclusive: 17.8 µM [inhibitor, partial curve]"
24,CCn1ncc(Cl)c1C(=O)NC(=S)Nc1c(C)cc(C)cc1[N+](=O)[O-],"inconclusive: 15.8 µM [inhibitor, single point]"

row,SMILES,Potency
1,Cc1ccc(-c2nnc(Nc3cccc(O)c3)c3ccccc23)cc1S(=O)(=O)N1CCN(C)CC1,inactive
2,Cc1ccc(-c2nc3ccccc3o2)cc1NC(=S)NC(=O)/C=C/c1ccco1,"inconclusive: 14.1 µM [inhibitor, partial curve]"
3,N#C/C(=C\c1cccs1)C(=O)NCC1CCCO1 (stereo not given),"inconclusive: 5.62 µM [inhibitor, partial curve, poor fit]"
4,CCc1cccc(CC)c1NC(=O)CN1C(=O)C(=O)c2ccccc21,"inconclusive: 7.94 µM [inhibitor, partial curve]"
5,Cn1c(=O)c(C(=O)Nc2ncccc2O)c(O)c2ccccc21,"inconclusive: 17.8 µM [inhibitor, partial curve]"
6,Cc1ccccc1-c1nc(-c2ccc(NC(=O)c3ccc4c(c3)OCO4)cc2)no1,"inconclusive: 0.501 µM [inhibitor, full curve]"
7,CC(C)(Oc1ccc(-c2ccco2)cc1)C(=O)O,inactive
8,CCOc1cccc(/C=C/c2cc(C(=O)O)c3ccccc3n2)c1OC,inactive
9,Cc1ccc(-c2nc(SCC(=O)NCc3ccco3)c3c(=O)n(C)c(=O)n(C)c3n2)cc1,inactive
10,CC1CCCN(C(=O)c2cc3c(Cl)nc4ccccc4c3s2)C1 (stereo not given),"inconclusive: 44.7 µM [inhibitor, single point]"
11,Cc1ccc(OCc2nc3ccccc3n2CCOc2ccc(Cl)cc2)cc1,inactive
12,CCC(c1nnnn1Cc1ccccc1)N(Cc1ccco1)Cc1cc2cc(OC)ccc2[nH]c1=O (stereo not given),"inconclusive: 15.8 µM [inhibitor, partial curve]"
13,CCc1nn(C)c(-c2n[nH]c(=S)n2N)c1Cl,inactive
14,O=[N+]([O-])c1ccc(N/N=C/c2c[nH]c3ccccc23)c(S(=O)(=O)Nc2ccc(Cl)cc2)c1,active: 3.16 µM
15,Cc1ccc(/C=C/c2nc3ccccc3[nH]2)cc1,"inconclusive: 39.8 µM [activator, single point]"
16,CC(C)COc1ccc(C(=O)N(Cc2ccc(N(C)C)cc2)Cc2ccco2)cc1,inactive
17,CCN(CC)P(=O)(Nc1cccc(C(F)(F)F)c1)c1ccc(N(C)C)cc1NC(=O)c1ccco1 (stereo not given),"inconclusive: 20 µM [inhibitor, single point]"
18,Cc1ccc(Nc2nn3c(=O)c4cc5c(cc4nc3s2)OCO5)cc1Cl,"inconclusive: 8.91 µM [inhibitor, partial curve]"
19,COc1ccc(-c2cc(C(=O)Nc3c(C)nn(Cc4ccc(C)cc4)c3C)no2)cc1OC,"inconclusive: 20 µM [inhibitor, single point]"
20,CCOC(=O)CNC(=O)CSc1ncnc2c1cnn2-c1ccc(Cl)cc1,"inconclusive: 0.112 µM [inhibitor, full curve, poor fit]"
21,NNc1nc2sc3c(c2c(=O)n1Cc1ccccc1)CCC3,"inconclusive: 25.1 µM [inhibitor, single point]"
22,COc1ccc(Cl)cc1NC(=O)CN1C(=O)COc2ccc(S(=O)(=O)NC3CCCC3)cc21,inactive
